Experimental data published in patent US20230278972A1, “SUBSTITUTED HALOALKYL SULFONANILIDE HERBICIDES” (FMC Corporation, priority 2020, published 2023).

System: sedge, umbrella (small-flower umbrella sedge, Cyperus difformis)
Assay: Test B1 flooded paddy test, sedge, umbrella
Type: in vivo
Conditions: 250 g ai/ha, Flood, applied to paddy water, 2-leaf stage, visually evaluated after 10 to 14 days
Description: A dash (-) response means no test result.

SMILES	Plant response rating, Sedge, Umbrella (0 to 100 scale, 0 is no effect, 100 is complete control)
Cc1cc(C)c(N(COC(=O)N(C)C)S(=O)(=O)C(F)(F)F)cc1C1=NOC2CCCC12 (stereo not drawn) [Compound 317]	0
CCOC1CC(c2cc(NS(=O)(=O)C(F)(F)F)c(C)cc2C)=NO1 (stereo not drawn) [Compound 318]	80
COCC1CC(c2cc(NS(=O)(=O)C(F)(F)F)c(C)cc2C)=NO1 (stereo not drawn) [Compound 319]	80
Cc1c(C(=O)N(C)C)cc(NS(=O)(=O)C(F)(F)F)c(Cl)c1F [Compound 320]	90
Cc1c(C(=O)N2CCOCC2)cc(NS(=O)(=O)C(F)(F)F)c(Cl)c1F [Compound 321]	98
Cc1cc(C)c(C2=NOC(OCC(C)C)C2)cc1NS(=O)(=O)C(F)(F)F (stereo not drawn) [Compound 322]	0
CCCCOC1CC(c2cc(NS(=O)(=O)C(F)(F)F)c(C)cc2C)=NO1 (stereo not drawn) [Compound 323]	0
Cc1c(C(=O)N2CCOCC2)cc(N(COC(=O)C(C)(C)C)S(=O)(=O)C(F)(F)F)c(C)c1C [Compound 324, [[(Trifluoromethyl)sulfonyl][2,3,4-trimethyl-5-(4-morpholinylcarbonyl)phenyl]amino]methyl 2,2-dimethylpropanoate]	98
CCOC(=O)N(c1cc(C(=O)N2CCOCC2)c(C)c(C)c1C)S(=O)(=O)C(F)(F)F [Compound 325]	100
Cc1c(NS(=O)(=O)C(F)(F)F)cc(C(=O)N2CCCCC2)c(C)c1C [Compound 326]	95
Cc1c(C(=O)N2CCCCC2)cc(N(COC(=O)C(C)(C)C)S(=O)(=O)C(F)(F)F)c(C)c1C [Compound 329, [[(Trifluoromethyl)sulfonyl][2,3,4-trimethyl-5-(1-piperidinylcarbonyl)phenyl]amino]methyl 2,2-dimethylpropanoate]	95
CCOC(=O)N(c1cc(C(=O)N2CCCCC2)c(C)c(C)c1C)S(=O)(=O)C(F)(F)F [Compound 330, Ethyl N-[(trifluoromethyl)sulfonyl]-N-[2,3,4-trimethyl-5-(1-piperidinylcarbonyl)phenyl]carbamate]	100
Cc1c(C(=O)N2C[C@@H](C)O[C@@H](C)C2)cc(N(COC(=O)C(C)(C)C)S(=O)(=O)C(F)(F)F)c(C)c1C [Compound 331]	90
CCOC(=O)N(c1cc(C(=O)N2C[C@@H](C)O[C@@H](C)C2)c(C)c(C)c1C)S(=O)(=O)C(F)(F)F [Compound 332]	90
Cc1c(C(=O)N2CCCCC2)cc(NS(=O)(=O)C(F)(F)F)c(Cl)c1F [Compound 333]	90
COC1CCCN(C(=O)c2cc(NS(=O)(=O)C(F)(F)F)c(Cl)c(F)c2C)C1 (stereo not drawn) [Compound 334]	90
Cc1c(NS(=O)(=O)C(F)(F)F)cc(C2=NOC3CCCC23)c(C)c1C (stereo not drawn) [Compound 335]	90
Cc1c(C2=NO[C@@H]3CCC[C@H]23)cc(N(COC(=O)C(C)(C)C)S(=O)(=O)C(F)(F)F)c(C)c1C [Compound 336, [[(Trifluoromethyl)sulfonyl][2,3,4-trimethyl-5-[(3aR,6aR)-3a,5,6,6a-tetrahydro-4H-cyclopent[d]isoxazol-3-yl]phenyl]amino]methyl 2,2-dimethylpropanoate]	95
C#CCN(C)C(=O)c1cc(NS(=O)(=O)C(F)(F)F)c(Cl)c(F)c1C [Compound 337]	95
COCC1CC(c2cc(N(COC(=O)C(C)(C)C)S(=O)(=O)C(F)(F)F)c(C)cc2C)=NO1 (stereo not drawn) [Compound 338]	90
CCOC1CC(c2cc(N(COC(=O)C(C)(C)C)S(=O)(=O)C(F)(F)F)c(C)cc2C)=NO1 (stereo not drawn) [Compound 339]	65
Cc1cc(C)c(C2=NOC3(C)CCCC23)cc1NS(=O)(=O)C(F)(F)F (stereo not drawn) [Compound 340]	95
Cc1cc(C)c(N(COC(=O)C(C)(C)C)S(=O)(=O)C(F)(F)F)cc1C1=NOC2(C)CCCC12 (stereo not drawn) [Compound 341]	95
CCC1ON=C(c2cc(N(C(=O)OCC(C)C)S(=O)(=O)C(F)(F)F)c(C)cc2C)C1CC (stereo not drawn) [Compound 345]	95
CCC1ON=C(c2cc(N(C(=O)OCC(C)C)S(=O)(=O)C(F)(F)F)c(C)cc2C)C1CC (stereo not drawn) [Compound 348]	95
Cc1cc(C)c(C2=NOC3OCCC23)cc1NS(=O)(=O)C(F)(F)F (stereo not drawn) [Compound 349]	80
Cc1cc(C)c(N(COC(=O)C(C)(C)C)S(=O)(=O)C(F)(F)F)cc1C(=O)N1CCC(F)(F)CC1 [Compound 350]	85

SMILES	Plant response rating, Sedge, Umbrella (0 to 100 scale, 0 is no effect, 100 is complete control)
CCOC(=O)N(c1cc(C(=O)N2CCC(F)(F)CC2)c(C)cc1C)S(=O)(=O)C(F)(F)F [Compound 351]	70
Cc1cc(C)c(N(COC(=O)C(C)(C)C)S(=O)(=O)C(F)(F)F)cc1C1=NOC2OCCC12 (stereo not drawn) [Compound 352]	70
Cc1cc(C)c(N(COC(=O)C(C)(C)C)S(=O)(=O)C(F)(F)F)cc1C(=O)N1CCC(C)CC1 [Compound 353]	85
CCOC(=O)N(c1cc(C(=O)N2CCC(C)CC2)c(C)cc1C)S(=O)(=O)C(F)(F)F [Compound 354]	70
Cc1cc(C2CC2)c(C2=NOC3CCCC23)cc1N(COC(=O)C(C)(C)C)S(=O)(=O)C(F)(F)F (stereo not drawn) [Compound 355]	70
Cc1c(NS(=O)(=O)C(F)(F)F)cc(C(=O)N2CCC(Cl)CC2)c(C)c1C [Compound 356]	85
Cc1c(NS(=O)(=O)C(F)(F)F)cc(C(=O)N2CCC(F)(F)CC2)c(C)c1C [Compound 357]	75
Cc1c(NS(=O)(=O)C(F)(F)F)cc(C(=O)N2CCC(F)CC2)c(C)c1C [Compound 358]	55
Cc1c(C(=O)N2CCC(Cl)CC2)cc(N(COC(=O)C(C)(C)C)S(=O)(=O)C(F)(F)F)c(C)c1C [Compound 359]	75
Cc1c(C(=O)N2CCC(F)(F)CC2)cc(N(COC(=O)C(C)(C)C)S(=O)(=O)C(F)(F)F)c(C)c1C [Compound 360]	95
Cc1c(C(=O)N2CCC(F)CC2)cc(N(COC(=O)C(C)(C)C)S(=O)(=O)C(F)(F)F)c(C)c1C [Compound 361]	95
Cc1cc(C)c(N(COC(=O)C(C)(C)C)S(=O)(=O)C(F)(F)F)cc1C(=O)N1CCOCC1 [Compound 362]	75
CCOC(=O)N(c1cc(C(=O)N2CCOCC2)c(C)cc1C)S(=O)(=O)C(F)(F)F [Compound 363]	95
Cc1cc(C)c(N(COC(=O)C(C)(C)C)S(=O)(=O)C(F)(F)F)cc1C(=O)N1CCC(c2ccccc2)CC1 [Compound 364]	0
CCOC(=O)N(c1cc(C(=O)N2CCC(c3ccccc3)CC2)c(C)cc1C)S(=O)(=O)C(F)(F)F [Compound 365]	70
Cc1c(NS(=O)(=O)C(F)(F)F)cc(C(=O)N2CCC(C)CC2)c(C)c1C [Compound 366]	95
COC1CCN(C(=O)c2cc(NS(=O)(=O)C(F)(F)F)c(C)c(C)c2C)CC1 [Compound 367]	98
C#CCN(C)C(=O)c1cc(NS(=O)(=O)C(F)(F)F)c(C)c(C)c1C [Compound 368]	98
Cc1c(C(=O)N2CCC(C)CC2)cc(N(COC(=O)C(C)(C)C)S(=O)(=O)C(F)(F)F)c(C)c1C [Compound 369]	98
COC1CCN(C(=O)c2cc(N(COC(=O)C(C)(C)C)S(=O)(=O)C(F)(F)F)c(C)c(C)c2C)CC1 [Compound 370]	98
C#CCN(C)C(=O)c1cc(N(COC(=O)C(C)(C)C)S(=O)(=O)C(F)(F)F)c(C)c(C)c1C [Compound 371]	98
Cc1cc(C)c(C2=NOC3OCCCC23)cc1NS(=O)(=O)C(F)(F)F (stereo not drawn) [Compound 372]	75
CCC1CC(c2cc(NS(=O)(=O)C(F)(F)F)c(C)cc2C)=NO1 (stereo not drawn) [Compound 375]	70
CCC1CC(c2cc(N(COC(=O)C(C)(C)C)S(=O)(=O)C(F)(F)F)c(C)cc2C)=NO1 (stereo not drawn) [Compound 376]	95
Cc1ccc(C2=NOC3CCCC23)cc1NS(=O)(=O)C(F)(F)F (stereo not drawn) [Compound 377]	0
CCc1cc(C)c(N(COC(=O)C(C)(C)C)S(=O)(=O)C(F)(F)F)cc1C1=NOC2CCCC12 (stereo not drawn) [Compound 378]	80
CCOC(=O)N(c1cc(C2=NOC3CCCC23)c(CC)cc1C)S(=O)(=O)C(F)(F)F (stereo not drawn) [Compound 379]	80
